Source: patent US20250382361A1, “AFFIBODIES, HYDROGELS CONTAINING AFFIBODIES, AND USES THEREOF” (University of Oregon, priority 2024, published 2025)

Assays:
[1] = molecular target: T1, IL-4 (Homo sapiens, UniProt P05112); assay: Flow cytometry of affibody-displaying yeast binding bIL-4
T1 construct: biotin (label as supplied by the vendor); purchased Acro Biosystems
T1 sequence (P05112 25-153): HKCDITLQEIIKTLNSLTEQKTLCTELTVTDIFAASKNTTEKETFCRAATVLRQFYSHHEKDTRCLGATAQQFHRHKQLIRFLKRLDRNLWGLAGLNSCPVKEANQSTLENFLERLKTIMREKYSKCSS
Procedure: (§1) Several other proteins involved in the bone healing cascade were chosen to investigate specificity of the BMP-2 affibodies. Monoclonal affibody-displaying yeast were incubated with PBSA, αCMYC and secondary solution, or αCMYC with 1000 nM of biotinylated vascular endothelial growth factor (bVEGF), biotinylated interleukin-4 (bIL-4), or biotinylated granulocyte-macrophage colony stimulated factor (bGM-CSF) and secondary solution.
A yeast surface display library containing approximately 800 million randomized affibody-encoding genes underwent magnetic- and fluorescence-activated cell sorts to isolate affibodies that bind specifically to IL-4. […] Target specificity was evaluated by comparing monoclonal affibody binding between all three angiogenic proteins. Target-specific affibodies were transformed into E. coli and expressed with a hexahistidine tag and C-terminal cysteine for purification and chemical conjugation, respectively.

[2] = system: HUVECs; assay: VEGF bioactivity HUVEC proliferation assay (CellTiter-Glo); type: cell-based, human
[3] = molecular target: T2, VEGF165 (Homo sapiens, UniProt P15692); assay: Flow cytometry of affibody-displaying yeast binding bVEGF; conditions: for binding to VEGF on yeast surface display (specificity): 1 μM bVEGF
T2 construct: biotin (label as supplied by the vendor); purchased Acro Biosystems
T2 sequence (P15692 1-191 isoform P15692-4): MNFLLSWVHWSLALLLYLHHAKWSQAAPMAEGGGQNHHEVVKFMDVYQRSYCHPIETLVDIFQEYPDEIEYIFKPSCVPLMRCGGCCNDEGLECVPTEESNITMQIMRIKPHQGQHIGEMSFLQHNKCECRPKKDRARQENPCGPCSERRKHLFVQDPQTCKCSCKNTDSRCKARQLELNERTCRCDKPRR
Procedure: (§2) The binding affinity of each unique affibody for its target protein was characterized using flow cytometry. Yeast were stained for flow cytometry using a similar procedure to FACS staining with a few modifications. The number of induced yeast in each tube was decreased to 1×10^6, and biotinylated protein concentrations for each target ranged from 2.5 to 10000 nM, and yeasts were resuspended in 200 μL of PBSA before being transferred to a 96-well plate. The equilibrium dissociation constant (KD) of each affibody-target protein binding was calculated by comparing the ratio of AF647^+/AF488^+ cells to AF647^+ cells at each target protein concentration, plotting this ratio against protein concentration, and performing nonlinear regression to determine the inflection point of the curve. To determine specificity for each affibody to the respective targets, flow cytometry was performed as described above with one change: each affibody was tested against 1 μM of each of bVEGF, bFGF-2, and bPDGF. Cells were analyzed using an Accuri C6 Plus Flow Cytometer (BD Biosciences, Franklin Lakes, NJ).
as §1
(§3) Four rounds of MACS were performed, using magnetic beads covalently conjugated with VEGF165, PDGF-BB, or FGF-2, as the positive sort target, while bovine serum albumin (BSA)-conjugated beads and Tris-coated beads were used for negative sorting. Following MACS, two rounds of FACS were performed to enrich the population for affibody-expressing yeast that bound to the target protein. […] Target specificity was evaluated by comparing monoclonal affibody binding between all three angiogenic proteins. Target-specific affibody coding sequences were transformed into E. coli and expressed with a hexahistidine tag and C-terminal cysteine (e.g., aa 59-65 of SEQ ID NO: 71) for purification and chemical conjugation, respectively.

[4] = molecular target: T3, FGF-2 (Homo sapiens, UniProt P09038); assay: Flow cytometry of affibody-displaying yeast binding bFGF-2; conditions: 1 μM bFGF-2
T3 construct: biotin (label as supplied by the vendor); purchased Acro Biosystems
T3 sequence (P09038 134-288): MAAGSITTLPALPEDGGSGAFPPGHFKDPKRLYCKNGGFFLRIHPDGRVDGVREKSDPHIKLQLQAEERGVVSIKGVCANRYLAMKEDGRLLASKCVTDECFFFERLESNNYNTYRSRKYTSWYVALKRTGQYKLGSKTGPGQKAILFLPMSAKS
Procedure: as §2, §3

[5] = molecular target: T4, VEGF (Homo sapiens, UniProt P15692); assay: Biolayer interferometry, soluble affibody vs bVEGF; type: binding; conditions: BLI, binding to VEGF, global fit
T4 construct: biotin (label as supplied by the vendor); purchased Acro Biosystems
T4 sequence (P15692 1-191 isoform P15692-4): T2 sequence (P15692 1-191 isoform P15692-4)
Procedure: (§4) Loaded probes were submerged in PBST until the baseline wavelength reading stabilized (approximately 300 seconds). 3.125-1000 nM of soluble VEGF-specific affibodies serially diluted in PBST were associated to the bVEGF-loaded probes for 600 seconds. Probes were then submerged into PBST or 600 seconds to measure dissociation of the affibodies. For measuring binding between PDGF and PDGF-specific affibodies, nitrilotriacetic acid (Ni-NTA) functionalized glass probes (GatorBio) were similarly pre-soaked in PBST, then loaded with 200 nM of PDGF-specific affibodies in PBST for 300 seconds until an approximate wavelength shift of 0.5 nm was achieved. Loaded probes were submerged in PBST until the baseline wavelength reading stabilized (approximately 300 seconds). 1.563-50 nM of soluble PDGF serially diluted in PBST were associated to the affibody-loaded probes for 600 seconds. Probes were then submerged into PBST for 600 seconds to measure dissociation of PDGF. Measurements were also taken of bVEGF loaded onto the streptavidin-functionalized probes without affibodies, affibodies loaded onto Ni-NTA probes without PDGF, and 0.0625-50 nM of PDGF without affibodies loaded onto Ni-NTA probes to subtract background signal from the data. Binding curves were normalized to data from probes loaded with only affibodies and only growth factors using GatorOne software 2.10 (GatorBio).
(§5) Biolayer interferometry (BLI) was also performed using streptavidin-functionalized glass probes to measure binding of affibodies to their off-target proteins.
(§6) Binding curves were fit to a global best-fit, non-linear regression model using GraphPad Prism 10.1.1 in which R^2>0.97 to determine the equilibrium dissociation constant (KD), on-rate constant (koff), and off-rate constant (kon) of each binding interaction.
The weaker affinity observed on yeast surface display was likely due to increased steric hindrance and decreased mobility of the VEGF-affibody binding interface when the affibody was fixed within the yeast surface display construct compared to being freely accessible in solution during BLI.

[6] = molecular target: T5, PDGF-BB (Homo sapiens, UniProt P01127); assay: Flow cytometry of affibody-displaying yeast binding bPDGF; design: biotin (label as supplied by the vendor); purchased R&D Systems; conditions: 1 μM bPDGF
T5 sequence (P01127 82-190 limits assumed): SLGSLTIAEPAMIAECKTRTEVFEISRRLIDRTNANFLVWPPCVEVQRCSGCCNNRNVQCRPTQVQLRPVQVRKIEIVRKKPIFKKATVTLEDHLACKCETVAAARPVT
Procedure: as §2, §3
However, because PDGF typically plays a role in the later stages of angiogenesis, PDGF binding affibodies with higher binding affinities were engineered, resulting in slower, sustained protein release. […]

[7] = molecular target: T3, FGF-2; assay: Biolayer interferometry, soluble affibody vs bFGF-2; type: binding; conditions: 25 nM bFGF-2 on probe; 1000 nM affibody
Text: To further explore the affibody off-target binding observed on yeast surface display, biolayer interferometry (BLI) was used to measure off-target binding between soluble affibodies and proteins.

[8] = molecular target: T5, PDGF-BB; assay: Biolayer interferometry, affibody vs PDGF; type: binding; design: purchased PeproTech; conditions: 25 nM bPDGF on probe; 1000 nM affibody
Procedure: The binding interaction between PDGF and each soluble affibody was measured using a Gator® Plus biolayer interferometer (BLI; Gator Bio). Each soluble His-tagged affibody was diluted to 200 nM in PBS with 0.05% Tween20 (PBST; Thermo Fisher). Recombinant human PDGF-BB was buffer-exchanged into PBS and diluted to concentrations between 0-50 nM in PBST. Ni-NTA coated BLI probes (Gator Bio) were pre-soaked in 250 μL PBST for 45 minutes. The probes were then baselined with 200 μL PBST for 300 seconds and loaded with affibody for 180 seconds or until the wavelength shift plateaued. A new baseline was established using 200 μL PBST for 180 seconds, followed by 600 seconds of association with 200 μL of the various concentrations of rhPDGF-BB and dissociation for 600 seconds in 200 μL PBST.
as §4, §5, §6
Rosetta Rational Design Generates PDGF-specific Affibodies with Unique Binding Kinetics: Binding of PDGF to PDGF-specific affibodies was evaluated by loading nickel nitrilotriacetic acid (Ni-NTA)-coated BLI probes with 200 nM of each of the PDGF affibodies, followed by association of 1.563-50 nM of PDGF (FIG. 45G). […] Similar to the VEGF-specific affibody, the lower observed affinity between the original PDGF-specific affibody and PDGF on yeast surface display could be due to increased steric hindrance and decreased mobility of the PDGF-affibody binding interface compared to BLI.

[9] = molecular target: T6, BMP-2 (Homo sapiens, UniProt P12643); assay: Biolayer interferometry (BLI), soluble affibody vs bBMP-2; type: binding; conditions: dissociation into PBST
T6 construct: purchased Medtronic
T6 sequence (P12643 283-396): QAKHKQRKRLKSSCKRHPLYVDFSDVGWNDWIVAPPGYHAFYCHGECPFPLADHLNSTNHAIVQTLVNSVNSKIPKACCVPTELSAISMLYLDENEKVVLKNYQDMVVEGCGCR
Procedure: Streptavidin-coated BLI probes (Gator Bio) were pre-soaked in 250 μL PBST for 45 minutes. […] A new baseline was established using 200 μL PBST for 90 seconds, followed by 300 seconds of association with 200 μL of the various concentrations of affibody and dissociation for 300 seconds in 200 μL PBST.
BLI enabled the determination of the dissociation rate constant (koff), association rate constant (kon), and overall equilibrium dissociation constant (KD) of each binding interaction.

Row | Sequence | binding to IL-4 on yeast surface display (specificity) [1] | binding to VEGF on yeast surface display (specificity) [3] | binding to FGF-2 on yeast surface display (specificity) [4] | binding to PDGF on yeast surface display (specificity) [6] | binding to bFGF-2 on BLI (specificity) [7] | binding to bPDGF on BLI (specificity) [8] | further results
1 | AEAKYNKELDAADADVEIWLLPNLTLDQLLAFIAALFNDPSQSSELLSEAKKLNDSQAPK [SEQ ID NO: 61, IL-4 affibody] | specific binding to IL-4 | – | – | – | – | – | –
2 | AEAKYNKEWYDAVFVIGSLPNLTEDQKDAFSDALVDDPSQSSELLSEAKKLNDSQAPK [SEQ ID NO: 22, VEGF affibody] | – | specific binding | negligible binding | negligible binding | – | – | HUVEC proliferation ([2]; 200 ng/ml VEGF pre-incubated with an equal molar amount of affibody): inhibited to comparable levels to no VEGF treatment; HUVEC proliferation ([2]; 200 ng/ml VEGF with affibody increased to 500× molar excess): increased up to comparable levels as treatment with 200 ng/ml of VEGF; HUVEC proliferation with affibody alone ([2]; 19,100 ng/mL affibody, no VEGF, 96 hours): induced HUVEC proliferation in the absence of VEGF that was comparable to treatment with 200 ng/mL of VEGF; Kd [5]: 89.8 nM
3 | AEAKYTKEGFDAYDVIDNLPNLTLDQRNAFVYALENDPSQSSELLSEAKKLNDSQAPK (AEAKYTKEGFDAYDVIDNLPNLTLDQRNAFVYALFNDPSQSSELLSEAKKLNDSQAPK) [SEQ ID NO: 21, VEGF affibody] | – | specific binding | negligible binding | negligible binding | negligible binding | negligible binding | –
4 | AEAKYTKELSDANAEIWSLPNLTVDQLVAFIFALWDDPSQSSELLSEAKKLNDSQAPK [SEQ ID NO: 62, IL-4 affibody] | specific binding to IL-4 | – | – | – | – | – | –
5 | AEAKYYKEGATAYRVIEYLPNLTGAQKAAFIDALYNDPSQSSELLSEAKKLNDSQAPK [SEQ ID NO: 20, VEGF affibody] | – | specific binding | negligible binding | negligible binding | negligible binding | negligible binding | greater affinity for VEGF than the medium-affinity VEGF affibody (SEQ ID NO: 21) [3]: approximately 5 fold
6 | AEAKYYKEVSSAATQIRYLPNLTAFQKAAFYAALLDDPSQSSELLSEAKKLNDSQAPK [SEQ ID NO: 1, BMP-2 affibody] | – | – | – | – | – | – | dissociation of affibody and BMP-2 in BLI [9]: incomplete dissociation
